About 200 (0.47%) of roughly 43,000 compounds were called active. About 12% were inconclusive and are not listed. The call rests on the fitted dose curve; in most records, active means well fitted cell-killing curve with a large enough effect; inconclusive means small, poorly fitted or top-dose-only effect, or effect the other way; inactive means flat fitted curve, though single readings scatter. The list shows a part of the results.

The values that follow come from PubChem BioAssay AID1508642 (National Center for Advancing Translational Sciences (NCATS), 2021).
On the % scale 0 is the no-effect control and ±100 the full control effect.

A short description of the test: Cell viability qHTS assay in S16 Pmp22-F2sN cells. Further: nearly all actives have a fitted effect of over 65% in size. Conditions: S16 Pmp22-F2sN Schwann cells viability, CellTiter-Glo, 24 h; series mostly up to 57.5 µM; activity change, negative = cytotoxicity: at the top concentration. In a few lines:
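Used to flag compounds lowering reporter output through toxicity, this quantitative HTS measures ATP-based CellTiter-Glo luminescence in S16 Pmp22-F2sN Schwann cells after 24 h compound exposure at 37C.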
(qHTS replaces the single test concentration by a dilution series.)
Consider `CCOC(=O)c1cc(-c2ccccc2)n(CCC(=O)NCCc2ccc(C)cc2)c1C`, for which the “activity change, negative = cytotoxicity” value is inactive: 2.31%.

As for `COc1ccc(OC)c(NC(=O)COCc2cc(-c3ccco3)on2)c1`, the “activity change, negative = cytotoxicity” value is inactive: -6.04%.

In the case of `O=C(CSc1nccn1Cc1ccccc1)Nc1nc2ccccc2s1`, the “activity change, negative = cytotoxicity” value is inactive: 6.88%.

As to `Cc1cc(C)c(Cn2c(=O)n(Cc3ccccc3)c(=O)c3c(C)c(C)sc32)c(C)c1`, the “activity change, negative = cytotoxicity” value was inactive: 2.47%.

As to `O=C(Nc1cccc(C(F)(F)F)c1)c1cc2nc(-c3ccco3)cc(C(F)(F)Cl)n2n1`, the “activity change, negative = cytotoxicity” value was inactive: 0.297%.

As for `O=C(Nc1nc(-c2ccccc2)ns1)c1ccc(Cl)cc1`, the “activity change, negative = cytotoxicity” value was inactive: -0.17%.

Consider `Cc1cccc(NC(=O)C(NS(=O)(=O)c2cccc3nsnc23)c2ccccc2)c1C` (configuration not stated), for which the “activity change, negative = cytotoxicity” value was inactive: 0.929%.

Turning to `COc1ccccc1N1CCN(C(=O)c2ccc3c(c2)N(Cc2cc(C)ccc2C)C(=O)c2ccccc2S3(=O)=O)CC1`, the “activity change, negative = cytotoxicity” value was inactive: -0.257%.

In the case of `CCOC(=O)N1CCc2c(sc(NCc3cccs3)c2C(=O)Nc2cc(Cl)ccc2OC)C1`, the “activity change, negative = cytotoxicity” value is inactive: -5.01%.

Regarding `CCN(CC)c1ccc(NC(=O)C2CCN(S(=O)(=O)c3ccc4c(c3)oc(=O)n4C)CC2)c(C)c1`, the “activity change, negative = cytotoxicity” value is inactive: 10%.

In the case of `Cc1cc(C)cc(-n2c(SCC(=O)NCc3ccc(F)cc3)nc3c([nH]c4ccccc43)c2=O)c1`, the “activity change, negative = cytotoxicity” value was inactive: -5.83%.

In the case of `COc1cc(NC(=O)CSc2nc(-c3ccccc3)no2)cc(OC)c1`, the “activity change, negative = cytotoxicity” value is inactive: -17.4%.

With `CCOc1ccc(NC(=O)CN2C(=O)c3ccccc3Sc3ccc(C(=O)OC)cc32)cc1`, the “activity change, negative = cytotoxicity” value was inactive: 21.4%.

Take `O=C(C1CCC(Cn2c(=O)c3sccc3n(Cc3ccccc3F)c2=O)CC1)N1CCOCC1` (configuration not stated): the “activity change, negative = cytotoxicity” value was inactive: -8.25%.

Take `COc1cccc(NC(=O)CN2C(=O)CC(c3ccco3)Sc3ccccc32)c1` (configuration not stated): the “activity change, negative = cytotoxicity” value was inactive: 9.64%.

`COC(=O)c1sc(-c2ccccc2)cc1NC(=O)c1cccc(Cl)c1`: the “activity change, negative = cytotoxicity” value was inactive: -2.39%.

For the compound `CCc1ccc(NC(=O)N2CCN(Cc3nc4ccc(C)cc4o3)CC2)cc1`, the “activity change, negative = cytotoxicity” value was inactive: -15.6%.

In the case of `CCN(CC)C(=O)CN1C(=O)COc2ccc(S(=O)(=O)N3CCOCC3)cc21`, the “activity change, negative = cytotoxicity” value is inactive: 0.584%.

Turning to `Cc1ccc(N2CCN(C(=O)c3cn(C)c4ccc(S(=O)(=O)N5CCCC5)cc4c3=O)CC2C)cc1` (configuration not stated), the “activity change, negative = cytotoxicity” value was inactive: 2.29%.

Regarding `CC(=O)Nc1ccc(S(=O)(=O)NCC2CCC(C(=O)NCc3ccccc3)CC2)cc1` (configuration not stated), the “activity change, negative = cytotoxicity” value was inactive: 0.111%.

On to `COc1ccc(NC(=O)Cn2nnc(C(=O)NCc3ccco3)c2N)c(OC)c1`, for which the “activity change, negative = cytotoxicity” value was inactive: -8.71%.

As for `COc1ccccc1NC(=O)c1c(C)cc(C)nc1SCC(=O)Nc1ccc(C)cc1`, the “activity change, negative = cytotoxicity” value was inactive: -19.9%.

On to `CN(C)c1ccc(CNC(=O)C2CCCN(S(=O)(=O)c3ccc4c(ccn4C)c3)C2)cc1` (configuration not stated), for which the “activity change, negative = cytotoxicity” value is inactive: -9.43%.

`CCOc1ccccc1NC(=O)Cn1c(=O)oc2cc(S(=O)(=O)NCc3ccccc3)ccc21`: the “activity change, negative = cytotoxicity” value was inactive: -24%.

Turning to `CCOC(=O)c1sc(NC(=O)C(C)Oc2ccc(OC)cc2)c(C(=O)OCC)c1C` (configuration not stated), the “activity change, negative = cytotoxicity” value was inactive: 1.63%.

Take `COc1ccc(C(=O)Nc2cc(-c3ccccc3)nn2-c2ccccc2)cc1`: the “activity change, negative = cytotoxicity” value was inactive: 1.02%.

Take `CCOC(=O)c1cccc(NC(=O)c2cc3cc4cc(OC)ccc4nc3s2)c1`: the “activity change, negative = cytotoxicity” value was inactive: 8.81%.

As to `Cc1ccc(NC(=O)COc2ccc(-c3nn(C)c(=O)c4ccccc34)cc2)cc1`, the “activity change, negative = cytotoxicity” value was inactive: 21.3%.

`COc1ccc(C)cc1NC(=O)CN1C(=O)COc2ccc(S(=O)(=O)N3CCOCC3)cc21`: the “activity change, negative = cytotoxicity” value was inactive: 9.03%.

Turning to `CCN1CCC(N(Cc2cccc(OC)c2)C(=O)Nc2cccc(C)c2C)CC1`, the “activity change, negative = cytotoxicity” value is inactive: 1.63%.

`CC1=Nc2cc(C(=O)NCc3ccc(C)cc3)ccc2Sc2ccc(Cl)cc21`: the “activity change, negative = cytotoxicity” value is inactive: -5.1%.

For the compound `COc1ccc(C2N=C(N)Nc3nc4ccccc4n32)c(OC)c1OC` (configuration not stated), the “activity change, negative = cytotoxicity” value is inactive: -1.45%.

`COC(=O)C1=C(C)NC(=O)C1(NC(=O)c1ccc(Cl)cc1)C(F)(F)F` (configuration not stated): the “activity change, negative = cytotoxicity” value is inactive: 1.53%.

Turning to `O=C(Cn1c(=O)oc2cc(S(=O)(=O)N3CCCC3)ccc21)NCc1ccc(Cl)cc1`, the “activity change, negative = cytotoxicity” value was inactive: -14.7%.

As for `Cc1ccc(NC(=O)c2cn3c4c(ccc(Cl)c4c2=O)OC(C)C3)cc1C` (configuration not stated), the “activity change, negative = cytotoxicity” value is inactive: 4.23%.

As to `CCOCCCNC(=O)c1cc2c(=O)n(C)c3ccccc3c2n1C`, the “activity change, negative = cytotoxicity” value was inactive: 0.475%.

`COc1ccc(NC(=O)Cn2c(=O)n(-c3cccc(C)c3)c(=O)c3c2c2cc(C)ccc2n3C)cc1Cl`: the “activity change, negative = cytotoxicity” value was inactive: 10.7%.

Take `O=C(C1CCC(CNS(=O)(=O)c2ccc(Br)s2)CC1)N1CCN(c2ccccc2Cl)CC1` (configuration not stated): the “activity change, negative = cytotoxicity” value was inactive: 7.58%.

Take `CCOc1cc2sc(N3CCC(C(=O)Nc4ccccc4C(=O)OC)CC3)nc2cc1Br`: the “activity change, negative = cytotoxicity” value is inactive: 4.04%.

With `Cc1ncc(CO)c2c1Oc1nc(-c3ccccc3)nc(SCC(=O)N3CCCCC3)c1C2`, the “activity change, negative = cytotoxicity” value is inactive: 0.82%.

For `CCN(CC)C(=O)Cn1c(=O)n(Cc2ccc(C(=O)NCc3ccc(C)cc3)cc2)c(=O)c2ccccc21`, the “activity change, negative = cytotoxicity” value is inactive: 18.7%.

Turning to `COc1ccc(N2CC(NC(=O)C3CC3)CC2=O)cc1` (configuration not stated), the “activity change, negative = cytotoxicity” value was inactive: 10%.

Take `CC(=O)c1cccc(NC(=O)[C@H](Cc2ccccc2)N2Cc3ccccc3C2=O)c1`: the “activity change, negative = cytotoxicity” value was inactive: -12.9%.

Turning to `CCC(NC(=O)Nc1ccc(OC)c(OC)c1)c1c(-n2cccc2)sc2c1CCN(C)C2` (configuration not stated), the “activity change, negative = cytotoxicity” value is inactive: 4.73%.

With `Cc1cccc(NC(=O)C2CCCN(S(=O)(=O)c3c(C)[nH]c(=O)[nH]c3=O)C2)c1C` (configuration not stated), the “activity change, negative = cytotoxicity” value is inactive: -2.31%.

Turning to `COc1cccc(NC(=O)CSc2nc(=O)n(Cc3ccccn3)c3c2CCC3)c1`, the “activity change, negative = cytotoxicity” value is inactive: 6.52%.

`O=c1oc2ccc3ccccc3c2cc1-c1nnc(Nc2ccc(Cl)cc2Cl)s1`: the “activity change, negative = cytotoxicity” value is inactive: 1.8%.
